# From the supplement of paper PMC8728848
# The other results are listed elsewhere or left out.
# B1: StdA (Salmonella typhimurium), Q8Z3Z0 (protein)
# chain: MAAAGMMYGASVFAADTTPTAGPFGSGKILFTGTITNSPCDIAPGDDAITVPFGQISYRKLNTANATTDSKPFTIHLQNCAFDPNETTIAGSAGKMSKVTVSFSGTADTSGKAYVSTGSAQHVGVQLLKGDNTSLITPNTPMPDGDAQQLQAGNNELNFFARLIALTDAATPGDVNASVTYTLKYL
# How the values were obtained:
# Test in all cases: glycan array binding signal (z-score within array); higher = stronger binding
# Settings in all cases: glycan notation: IUPAC condensed, linker removed
# [1] = target: Gal(b1-4)GlcNAc(b1-3)[GlcNAc(b1-6)]Gal(b1-4)GlcNAc
# Outline: (§1)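 Glycan array data were curated from 3228 arrays in the Consortium for Functional Glycomics database and kept only where the protein sequence was available. Glycan names were converted to IUPAC-condensed notation, and columns mapping to the same glycan were averaged. The binding signal is a within-array Z-score, averaged across arrays of the same protein sequence at different concentrations or buffers and across linkers. Negative Z-scores can be read as non-binding.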
# [2] = target: Gal(b1-4)GlcNAc(b1-6)Gal(b1-4)GlcNAc
# Outline: as §1
# [3] = target: Gal(b1-4)GlcNAc(b1-6)Gal(b1-4)GlcNAc(b1-6)GalNAc
# Outline: as §1
# [4] = target: Gal(b1-4)GlcNAc(b1-6)GalNAc
# Outline: as §1
# [5] = target: Gal(b1-4)GlcNAc(b1-6)[Gal(b1-3)]GalNAc
# Outline: as §1
# [6] = target: Gal3S(b1-3)GalNAc
# Outline: as §1
# [7] = target: Gal3S(b1-3)GlcNAc
# Outline: as §1
# [8] = target: Gal3S(b1-3)[Fuc(a1-4)]GlcNAc
# Outline: as §1
# [9] = target: Gal3S(b1-4)Glc
# Outline: as §1
# [10] = target: Gal3S(b1-4)Glc6S
# Outline: as §1
# [11] = target: Gal3S(b1-4)GlcNAc
# Outline: as §1
# [12] = target: Gal3S(b1-4)GlcNAc6S
# Outline: as §1
# [13] = target: Gal3S(b1-4)[Fuc(a1-3)]Glc
# Outline: as §1
# [14] = target: Gal3S4S(b1-4)GlcNAc
# Outline: as §1
# [15] = target: Gal3S6S(b1-4)GlcNAc
# Outline: as §1
# [16] = target: Gal3S6S(b1-4)GlcNAc6S
# Outline: as §1
# [17] = target: Gal4S(b1-4)GlcNAc
# Outline: as §1
# [18] = target: Gal4S6S(b1-4)GlcNAc
# Outline: as §1
# [19] = target: Gal6S(b1-4)Glc
# Outline: as §1
# [20] = target: Gal6S(b1-4)Glc6S
# Outline: as §1
# [21] = target: Gal6S(b1-4)GlcNAc
# Outline: as §1
# [22] = target: Gal6S(b1-4)GlcNAc6S
# Outline: as §1
# [23] = target: GalNAc(a1-3)Gal
# Outline: as §1
# [24] = target: GalNAc(a1-3)GalNAc
# Outline: as §1
# [25] = target: GalNAc(b1-3)Gal
# Outline: as §1
# [26] = target: GalNAc(b1-3)Gal(a1-4)Gal(b1-4)GlcNAc
# Outline: as §1
# [27] = target: GalNAc(b1-3)Gal(a1-4)Gal(b1-4)GlcNAc(b1-3)Gal(b1-4)Glc
# Outline: as §1
# [28] = target: GalNAc(b1-3)GalNAc
# Outline: as §1
# [29] = target: GalNAc(b1-4)GlcNAc
# Outline: as §1
# [30] = target: GalNAc(b1-4)GlcNAc(b1-2)Man(a1-3)[GalNAc(b1-4)GlcNAc(b1-2)Man(a1-6)]Man(b1-4)GlcNAc(b1-4)GlcNAc
# Outline: as §1
# [31] = target: Glc(a1-4)Glc
# Outline: as §1
# [32] = target: Glc(a1-6)Glc(a1-6)Glc
# Outline: as §1
# [33] = target: Glc(b1-4)Glc
# Outline: as §1
# [34] = target: Glc(b1-6)Glc
# Outline: as §1
# [35] = target: GlcA(b1-3)Gal
# Outline: as §1
# [36] = target: GlcA(b1-3)GlcNAc
# Outline: as §1
# [37] = target: GlcA(b1-6)Gal
# Outline: as §1
# [38] = target: GlcNAc(a1-3)Gal(b1-4)GlcNAc
# Outline: as §1
# [39] = target: GlcNAc(a1-4)Gal(b1-3)GlcNAc
# Outline: as §1
# [40] = target: GlcNAc(a1-4)Gal(b1-4)GalNAc
# Outline: as §1
# [41] = target: GlcNAc(a1-4)Gal(b1-4)GlcNAc
# Outline: as §1
# [42] = target: GlcNAc(a1-4)Gal(b1-4)GlcNAc(b1-3)Gal(b1-4)Glc
# Outline: as §1
# [43] = target: GlcNAc(a1-4)Gal(b1-4)GlcNAc(b1-3)Gal(b1-4)GlcNAc
# Outline: as §1
binder,measurement,setting,value
B1,glycan array binding signal (z-score),[1],0.177
same,glycan array binding signal (z-score),[2],0.521
same,glycan array binding signal (z-score),[3],-0.216
same,glycan array binding signal (z-score),[4],-0.338
same,glycan array binding signal (z-score),[5],-0.122
same,glycan array binding signal (z-score),[6],-0.227
same,glycan array binding signal (z-score),[7],0.018
same,glycan array binding signal (z-score),[8],0.1
same,glycan array binding signal (z-score),[9],0.314
same,glycan array binding signal (z-score),[10],-0.225
same,glycan array binding signal (z-score),[11],-0.078
same,glycan array binding signal (z-score),[12],-0.505
same,glycan array binding signal (z-score),[13],-0.547
same,glycan array binding signal (z-score),[14],0.981
same,glycan array binding signal (z-score),[15],0.151
same,glycan array binding signal (z-score),[16],-0.494
same,glycan array binding signal (z-score),[17],-0.573
same,glycan array binding signal (z-score),[18],0.393
same,glycan array binding signal (z-score),[19],-0.489
same,glycan array binding signal (z-score),[20],0.765
same,glycan array binding signal (z-score),[21],0.71
same,glycan array binding signal (z-score),[22],-0.164
same,glycan array binding signal (z-score),[23],-0.279
same,glycan array binding signal (z-score),[24],0.047
same,glycan array binding signal (z-score),[25],-0.409
same,glycan array binding signal (z-score),[26],-0.636
same,glycan array binding signal (z-score),[27],0.837
same,glycan array binding signal (z-score),[28],-0.077
same,glycan array binding signal (z-score),[29],-0.136
same,glycan array binding signal (z-score),[30],3.5
same,glycan array binding signal (z-score),[31],2.13
same,glycan array binding signal (z-score),[32],-1.04
same,glycan array binding signal (z-score),[33],-0.507
same,glycan array binding signal (z-score),[34],-0.054
same,glycan array binding signal (z-score),[35],-0.14
same,glycan array binding signal (z-score),[36],-0.312
same,glycan array binding signal (z-score),[37],-0.599
same,glycan array binding signal (z-score),[38],-0.926
same,glycan array binding signal (z-score),[39],1.79
same,glycan array binding signal (z-score),[40],0.974
same,glycan array binding signal (z-score),[41],-0.553
same,glycan array binding signal (z-score),[42],0.073
same,glycan array binding signal (z-score),[43],-0.599
